Measurements as given in PubChem BioAssay AID1508624 (National Center for Advancing Translational Sciences (NCATS), 2021).
The whole screen tested about 48,000 compounds, of which about 120 (0.25%) were called active. Roughly 4% stayed inconclusive and do not appear here. Calls come from the whole dose curve; as a rule, active = well fitted activation curve with a large enough effect; inconclusive = small, poorly fitted or top-dose-only effect, or another doubt; inactive = no such curve, though single readings can be large or run the other way. This is a selection; strong and weak results do not stand in their true shares. The source gives no active or inactive call for entries shown without one.

Assay: Primary qHTS for Identification of Small Molecule Activators of Huntingtin-Antisense Promoter Activity; note: nearly all actives have a fitted effect of over 55% in size
Conditions: HEK293 HTT-AS promoter firefly luciferase reporter, 24 h; activity change, positive = activation: at 57.5 µM (top of the series), percent change from vehicle, -100% = no light
How it was run: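 HEK293 luciferase promoter-reporter cells (2,500/well) plated 24 h, then compounds added at up to 57.5 uM final for 24 h at 37 °C. Firefly luminescence by Dual-Glo, normalized to vehicle (0%) and zero RLU (-100%).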

Structure (SMILES)	activity change, positive = activation	Potency
CCOc1cccc(C(=O)Nc2ccc3oc(-c4cccnc4)nc3c2)c1	inactive: -8.42%	
CCCNC(=O)c1cnc2sc(N3CCCCC3)nn2c1=O	7.55%	
CCOC(=O)c1ccc(N2CCN(c3cc(Cl)ccc3C)CC2)c(NC(=O)Nc2cccc(OC)c2)c1	-7.34%	
COc1ccc2c(c1)cc1c(=O)n(CC(=O)NC3CCCCC3)nc(C)n12	-10.2%	
CCc1ccc(NC(=O)CC2C(=O)N(c3cccc(OC)c3)C(=O)N2Cc2ccco2)cc1 (stereo not drawn)	-5.65%	
COc1cc(C2C(=O)N(C3CCCCC3)CC(=O)N2C2CCCC2)ccc1OC(C)C (stereo not drawn)	13.8%	
COc1ccc(S(=O)(=O)Nc2cccc(-c3ccc(N4CCOCC4)nn3)c2)cc1F	21.9%	
Cc1nc2scc(C)n2c(=O)c1S(=O)(=O)NCc1ccccc1Cl	4.96%	
Cc1cccc(NC(=O)c2ccc(C(=O)Nc3cccc(C)c3C)cc2)c1C	7.46%	
Cc1ccc(-c2cc(C(=O)NC(C)c3ccccc3)c3ccccc3n2)cc1C (stereo not drawn)	inactive: 0%	
O=C(CSc1nnc(COc2ccc(Cl)cc2)o1)Nc1ccccc1	-14.8%	
CC(C)Oc1cccc(NC(=O)C2CCN(S(=O)(=O)Cc3ccccc3)CC2)c1	-2.87%	
Cc1cccc(N2C(=O)C(CC(=O)Nc3cccc(F)c3)N(Cc3cccs3)C2=O)c1 (stereo not drawn)	-16.4%	
Cc1nc2cccnc2n1C1CCN(S(=O)(=O)c2ccc(Cl)cc2)CC1	-12.1%	
CCc1c(O)cc(O)c(C(=O)c2ccc(OCCN3CCOCC3)c(OC)c2)c1CC(=O)N(CCOC)CCOC	inactive: -53.6%	
CCCc1nn2c(=O)cc(COC(=O)c3cccc(NC(=O)CCc4ccccc4)c3)nc2s1	inactive: 8.5%	
COc1ccc(CCN2CCN(CCCc3ccccc3)CC2)cc1OC	inactive: -12.1%	
Cc1cccc(N2CCN(C(=O)c3ccc4c(c3)N(Cc3ccccc3F)C(=O)c3ccccc3S4=O)CC2C)c1 (stereo not drawn)	inactive: -32.5%	
Cc1c(CC(=O)NCc2ccccc2)c(=O)oc2c(C)c(O)ccc12	-11.6%	
COc1ccc(NC(=O)c2c(NCc3ccc(C)o3)sc3c2CCCCC3)c(OC)c1	inactive: -26.5%	
CCOc1ccc(C2C(=O)N(C3CCCCCC3)CC(=O)N2Cc2ccc(C)cc2)cc1OC (stereo not drawn)	-18.2%	
Cc1cccc(CSCCNC(=O)C2CCN(S(=O)(=O)Cc3ccccc3)CC2)c1	-1.99%	
COc1ccc2c(C)c(CCC(=O)NCc3cccc(Cl)c3)c(=O)oc2c1	-1.1%	
COc1ccc2c(C)c(CCC(=O)NCCc3ccccc3)c(=O)oc2c1	-18.9%	

Structure (SMILES)	activity change, positive = activation	Potency
CC(C)NCC(O)c1ccc(O)c(O)c1 (stereo not drawn)		inactive
CCOc1cc(Br)cc(C2NC(=O)c3c(sc4c3CCN(C)C4)N2)c1O (stereo not drawn)	15.1%	
Brc1cccc(-c2cnn3c(-c4ccccc4)cc(-c4ccccc4)nc23)c1	-4.86%	
COc1cccc(C(=O)NCC(c2ccc3c(c2)OCO3)N2CCOCC2)c1 (stereo not drawn)	inactive: -14.3%	
Cc1ccc(-c2nc3ncccc3o2)cc1NC(=O)c1ccc(-c2ccc(Cl)cc2)o1	-6.91%	
Cc1oc2ccc(O)c(CN3CCOCC3)c2c1C(=O)Nc1ccccc1	0.947%	
O=S(=O)(Nc1cccc(-c2ccc(N3CCCCC3)nn2)c1)c1cccs1	39.4%	
CC(C)(C)c1ccc(C2Sc3ccccc3NC3=C2C(=O)c2ccccc23)cc1 (stereo not drawn)	-81.3%	
COc1ccc(Br)cc1CNC(=O)c1cc2ccccn2n1	4.07%	
CCc1nn(CC(=O)NC(C)CCc2ccccc2)c(=O)c2cc3cc(F)ccc3n12 (stereo not drawn)	0.379%	
CCn1cc(C(=O)NCCCOC(C)C)c(=O)c2cc(S(=O)(=O)N3CCc4ccccc4C3)ccc21	inactive: -20.1%	
O=C(Nc1ccc(Br)cc1)C1CCCN(S(=O)(=O)c2ccc(Br)s2)C1 (stereo not drawn)	inactive: -25.5%	
Cc1c2cnn(CC(=O)N3CCN(c4ccccc4)CC3)c(=O)c2c(C)n1Cc1ccc(F)cc1	inactive: -16.9%	
O=C1CC(c2ccccc2)Cc2[nH]c(=O)c(C(=O)Nc3ccc(OC(F)(F)F)cc3)cc21 (stereo not drawn)	inactive: -3.42%	
C=C(C)Cn1c(SCC(=O)c2ccc(OC)cc2)nc2sc3c(c2c1=O)CCCC3	7.84%	
Cc1cc(C)c(S(=O)(=O)Nc2ccc3oc4c(c3c2)C(=O)CC(C)(C)C4)cc1C	inactive: 0.0132% [at 11.5 µM, percent change from vehicle, -100% = no light]	
CCCOc1ccc(C2C(=O)N(C3CCCCCC3)CC(=O)N2CCC2=CCCCC2)cc1OC (stereo not drawn)	-9.61%	
COc1ccc(C2CC(=O)N(CC(=O)Nc3ccc(C)c(Cl)c3)c3ccccc3S2)cc1OC (stereo not drawn)	inactive: -20.7%	
Cc1oc2c(cc(NS(=O)(=O)c3ccc(Cl)cc3)c3ccccc32)c1C(=O)OCc1ccccc1	-5.08%	
COc1ccc2c(c1)CCc1c(C(=O)Nc3ccc(C#N)cc3)noc1-2	0.4%	
Cc1ccc(OCCOCCn2c(-c3ccc(Cl)cc3)nc3ccccc3c2=O)cc1	6.35%	
COc1ccc2c(C)c(CC(=O)NCCc3ccccc3)c(=O)oc2c1OC	-4.36%	
Cc1cc(S(=O)(=O)Nc2cccc(-c3ccc(N4CCOCC4)nn3)c2)c(C)cc1Cl	-1.49%	
COc1ccc(OC)c(CCNC(=O)C(C)n2nc(C)c3c(C)n(-c4ccc(C)cc4)nc3c2=O)c1 (stereo not drawn)	inactive: -88.4%	
